The results in this text go back to PubChem BioAssay AID1745853 (National Center for Advancing Translational Sciences (NCATS), 2022).

The list shows a part of the results. These are further read-outs of the screen, such as a control signal, another cell line or another target. No call is given for them.

Holding throughout (assay): Primary Screen for Target Class Profiling of Small Molecule Inhibitors of Methyltransferases
The target in assay [1] is Glycine N-methyltransferase (Homo sapiens) (UniProt Q14749). Conditions: purified enzyme, MTase-Glo SAH luminescence; measured here: GNMT inhibition; at 40 µM; stronger effect = lower value. The method, boiled down: (§1)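 Each enzyme was reacted with SAM and its substrate, with compounds tested once at 40 uM; SAH formed was read by MTase-Glo luminescence.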
Assay [2] has as its target Guanidinoacetate N-methyltransferase (Homo sapiens) (UniProt Q14353). Conditions: purified enzyme, MTase-Glo SAH luminescence; measured here: GAMT inhibition; at 40 µM; stronger effect = lower value. The method, boiled down:
as §1

Assay [3] addresses Histamine N-methyltransferase (Homo sapiens) (UniProt P50135). Conditions: purified enzyme, MTase-Glo SAH luminescence; measured here: HNMT inhibition; at 40 µM; stronger effect = lower value. The method, boiled down: as §1
In assay [4] the target is Nicotinamide N-methyltransferase (Homo sapiens) (UniProt P40261). Conditions: purified enzyme, MTase-Glo SAH luminescence; measured here: NNMT inhibition; at 40 µM; stronger effect = lower value. The method, boiled down: as §1
For assay [5], the target named is Phenylethanolamine N-methyltransferase (Homo sapiens) (UniProt P11086). The conditions noted are these: purified enzyme, MTase-Glo SAH luminescence; measured here: PNMT inhibition; at 40 µM; stronger effect = lower value. The method, boiled down: as §1
% is set by controls: 0 for no effect and ±100 for the full control effect.

For the compound `CCCn1c(=O)c2ccccc2n2c(=O)n(CC(=O)NCc3ccccc3)nc12`, the activity change, negative = inhibition is 2.76% in assay [1]; 1.2% in assay [2]; 3.07% in assay [3]; -7.11% in assay [4]; 1.76% in assay [5].

In the case of `CC(C)Cn1c(=O)c2ccc(C(=O)NC3CCCC3)cc2n2c(SCC(=O)NC3CCCC3)nnc12`, the activity change, negative = inhibition in assay [1] turned out to be 1.33%; in assay [2], 0%; in assay [3] it was 2.39%; in assay [4], 0.878%; in assay [5], 4.02%.

For the compound `CC(=O)O[C@H]1C[C@@H](O)C(C)(C)C2C[C@@H](OC(C)=O)[C@]3(C)C(CC[C@@]4(C)[C@H](c5ccoc5)OC(=O)[C@H]5O[C@]543)[C@]21C` (stereo partly drawn), the activity change, negative = inhibition was 0.518% in assay [1]; 0.064% in assay [2]; 8.92% in assay [3]; -11.8% in assay [4]; 4.62% in assay [5].

`Cc1ccc(-c2n[nH]n3c2nc(=O)c2ccc(C(=O)NCc4ccc(F)cc4)cc23)cc1`: the activity change, negative = inhibition in assay [1] is -12.2%; in assay [2] it was -2.4%; in assay [3] it was -1.37%; in assay [4], -8.37%; in assay [5], -4.78%.

Consider `CC(C)CC(c1c(O)c(C=O)c(O)c(C=O)c1O)C1CCC(C)(O)C2CC(C(C)(C)O)CCC12C` (stereo not drawn), for which the activity change, negative = inhibition in assay [1] was 2.9%; in assay [2] it was 2.73%; in assay [3] it was 13.5%; in assay [4], -23%; in assay [5], 10.1%.

`CN(C)c1nc(Cc2ccc(NC(=O)c3ccc(C(F)(F)F)cc3)cc2)nc(N(C)C)c1CC(=O)O`: the activity change, negative = inhibition is 5.41% in assay [1]; -2.92% in assay [2]; 8.96% in assay [3]; -16.6% in assay [4]; -0.001% in assay [5].

With `CC(C)C(=O)N1CCN(c2nc3c(s2)CC(C(=O)NCc2ccco2)CC3)CC1` (stereo not drawn), the activity change, negative = inhibition is -1.59% in assay [1]; -1.39% in assay [2]; -0.291% in assay [3]; 1.53% in assay [4]; -0.918% in assay [5].

With `CCCn1c(=O)c2ccc(Cl)cc2n2c(SCc3ccc(C)cc3)nnc12`, the activity change, negative = inhibition in assay [1] is -8.51%; in assay [2], 1.33%; in assay [3], 2.87%; in assay [4] it was 1.58%; in assay [5], 1.24%.

On to `O=C(c1ccc2ccccc2n1)N1CCC(n2cc(-c3nc(-c4ccccc4)no3)nn2)C1` (stereo not drawn), for which the activity change, negative = inhibition in assay [1] is -8.99%; in assay [2] it was 1.66%; in assay [3], 0.026%; in assay [4] it was -3.75%; in assay [5], -15.4%.

For `O=C1CC(c2ccc([N+](=O)[O-])cc2)=NN1c1ccccc1`, the activity change, negative = inhibition was -8.69% in assay [1]; -1.11% in assay [2]; 4.38% in assay [3]; -14.3% in assay [4]; 4.1% in assay [5].

With `CC(C)CN1C2CCC1CN(C(=O)Nc1ccccc1F)C2`, the activity change, negative = inhibition is -5.81% in assay [1]; -6.13% in assay [2]; -4.27% in assay [3]; -7.69% in assay [4]; -10.9% in assay [5].

As for `COc1ccc(CN2C(=Nc3ccc(Cl)cc3)S[C@H]3[C@@H]2[C@@H](O)[C@H](O)C[C@@H]3C(N)=O)cc1`, the activity change, negative = inhibition is -0.702% in assay [1]; 3.03% in assay [2]; 3.74% in assay [3]; 1.05% in assay [4]; 2.6% in assay [5].

With `COc1ccc(OC)c(N2C(=O)CSc3c(c4ccccc4n3C)C2C(=O)NCc2ccc(F)cc2)c1` (stereo not drawn), the activity change, negative = inhibition in assay [1] is -7.01%; in assay [2], -1.39%; in assay [3], 5.41%; in assay [4], -3.26%; in assay [5], 0.039%.

Regarding `O=C1NCCC[C@@H]1NC(=O)[C@H]1CN(C(=O)NC2CCCCC2)CCN1S(=O)(=O)c1ccc(F)cc1`, the activity change, negative = inhibition in assay [1] is -0.377%; in assay [2], -0.74%; in assay [3] it was -1.56%; in assay [4], 3.33%; in assay [5], 3.89%.

Turning to `CNC(=O)c1ccc(Nc2ncc(C(F)(F)F)c(NCc3nccnc3N(C)S(C)(=O)=O)n2)cc1`, the activity change, negative = inhibition is 4.12% in assay [1]; -2.26% in assay [2]; 4.74% in assay [3]; -30% in assay [4]; 0.829% in assay [5].

As to `O=C(c1ccn[nH]1)N1CCCCC1c1nc(CCOCC2CCCC2)no1` (stereo not drawn), the activity change, negative = inhibition in assay [1] is -5.66%; in assay [2] it was -8.53%; in assay [3], -5.53%; in assay [4], -18.1%; in assay [5], 1.26%.

For `CCC1c2ccc(C)n2CCN1C(=O)Nc1cccc(C)c1C` (stereo not drawn), the activity change, negative = inhibition in assay [1] is -7.89%; in assay [2] it was -0.676%; in assay [3] it was -10.4%; in assay [4], 1.29%; in assay [5], -5.46%.

As to `CN1CCN(CCCN2C(=O)c3cc4occc4n3CC2(C)C(=O)NC2CCCCC2)CC1` (stereo not drawn), the activity change, negative = inhibition in assay [1] was 2.48%; in assay [2], 0%; in assay [3], 7.44%; in assay [4], 7.85%; in assay [5] it was 5.16%.

For `CC1(C(=O)NC2CCCC2)Cn2c(cc3ccccc32)C(=O)N1CCCN1CCOCC1` (stereo not drawn), the activity change, negative = inhibition in assay [1] was 3.2%; in assay [2] it was 3.74%; in assay [3], -1.66%; in assay [4], 1.4%; in assay [5], -22.4%.

Turning to `Cc1ccc(NC(=O)C2(c3ccc4c(c3)OC(F)(F)O4)CC2)nc1-c1cccc(C(=O)O)c1`, the activity change, negative = inhibition in assay [1] was -11.3%; in assay [2], -2.11%; in assay [3], 9.35%; in assay [4] it was -26.8%; in assay [5], 0.452%.

Take `COC12CC3C(C(C)C1=CC(=O)O2)C(O)C(OC(C)=O)C1C(C)(C)C(OC(C)=O)CCC31C` (stereo not drawn): the activity change, negative = inhibition was 0% in assay [1]; 5.64% in assay [2]; 6.72% in assay [3]; -5.47% in assay [4]; 4.73% in assay [5].

Turning to `Cc1c(Cl)cccc1NC(=O)N1CCn2cccc2C1C` (stereo not drawn), the activity change, negative = inhibition was 2.5% in assay [1]; 0% in assay [2]; 7.3% in assay [3]; -6.49% in assay [4]; 2.94% in assay [5].

Take `CCOc1ccc(CCNC(=O)CCn2ccc3cc(S(=O)(=O)N4CCCCC4)ccc32)cc1`: the activity change, negative = inhibition was 0.98% in assay [1]; 4.92% in assay [2]; -1.88% in assay [3]; -2.25% in assay [4]; 0.604% in assay [5].

Regarding `Cc1ccc(-c2ccc3nnc(CNC(=O)COc4cccc(C)c4)n3n2)cc1`, the activity change, negative = inhibition in assay [1] is -7.39%; in assay [2], -4.76%; in assay [3] it was -1.19%; in assay [4] it was -5.36%; in assay [5] it was -0.544%.

Take `O=C(NCc1ccc(F)cc1)c1ccc(N2CC3CC(C2)[C@H]2CCCC(=O)N2C3)nc1` (stereo partly drawn): the activity change, negative = inhibition in assay [1] was -5.45%; in assay [2], -8.91%; in assay [3], -5.23%; in assay [4], -8.89%; in assay [5] it was -10.5%.

Regarding `CCCN1C(=O)c2c(C(=O)NCCc3ccc(Cl)cc3)ncn2CC1(C)C(=O)NCc1ccc(OC)cc1` (stereo not drawn), the activity change, negative = inhibition in assay [1] was 0.543%; in assay [2] it was 2.25%; in assay [3], 5.33%; in assay [4] it was -0.345%; in assay [5] it was 4.88%.

Regarding `Cc1ccc(CN2CC(=O)N(Cc3cccc(F)c3)c3ccccc3S2(=O)=O)cc1`, the activity change, negative = inhibition is -5.68% in assay [1]; -3.65% in assay [2]; -6.94% in assay [3]; -11.1% in assay [4]; -11.6% in assay [5].

Consider `CC(C)(C)c1ccc(S(=O)(=O)/C=C/C#N)cc1`, for which the activity change, negative = inhibition is -70.5% in assay [1]; 10.3% in assay [2]; 6.74% in assay [3]; -5.18% in assay [4]; 3.74% in assay [5].

Consider `CC(=O)Nc1sc2c(c1-c1ccc(N3CCN(C)CC3)cc1)CCNC2`, for which the activity change, negative = inhibition in assay [2] is -5.5%; in assay [4], -27.7%; in assay [5], -0.82%.

Regarding `Cc1ccc(NC(=O)N2Cc3c(sc4c3CCCC4)-n3cccc3C2c2cc(F)cc(F)c2)cc1F` (stereo not drawn), the activity change, negative = inhibition in assay [1] turned out to be 0.093%; in assay [2], 4.17%; in assay [3], 8.15%; in assay [4] it was 9.57%; in assay [5] it was 9.23%.

Turning to `CC1(C(=O)NC2CCCCCCC2)Cn2c(cc3sccc32)C(=O)N1c1cccc(F)c1` (stereo not drawn), the activity change, negative = inhibition in assay [1] is -2.67%; in assay [2], 4.03%; in assay [3], 4.88%; in assay [4], -0.735%; in assay [5] it was -4.05%.

As for `CCOc1ccc(CN2CCN(C/C=C/c3ccccc3OC)CC2CCO)cc1` (stereo not drawn), the activity change, negative = inhibition is -6.66% in assay [1]; -11.1% in assay [2]; -7.82% in assay [3]; -18.6% in assay [4]; -17.3% in assay [5].

Take `CC[C@@]1(C(=O)O)C[C@H](C(=O)N(C)CCCO)[C@H](c2ccc(OC)cc2)N1C`: the activity change, negative = inhibition in assay [1] was -9.98%; in assay [2], 1.3%; in assay [3] it was 1.24%; in assay [4], 0.51%; in assay [5], 0.127%.

`COc1ccccc1C(=O)N1CCN(c2nccc(Nc3ccccc3Cl)n2)CC1`: the activity change, negative = inhibition in assay [1] is -17.9%; in assay [2], -2.3%; in assay [3] it was -4.28%; in assay [4], -7.81%; in assay [5], -5.54%.

As for `Cc1ccc(N2C(=O)c3cc4sccc4n3CC2(C)C(=O)NC2CCCCC2C)cc1C` (stereo not drawn), the activity change, negative = inhibition in assay [1] is 0.047%; in assay [2], 0%; in assay [3] it was -4.93%; in assay [4], -2.98%; in assay [5], -4.23%.

As for `COc1nccc(N2CCC(CC(=O)NCCCN3CCCC3=O)CC2)n1`, the activity change, negative = inhibition in assay [1] was -0.554%; in assay [2] it was 0.043%; in assay [3], -1.33%; in assay [4] it was -7.82%; in assay [5], 13.9%.

For `CCCn1c(=O)c2ccccc2n2c(=O)n(CC(=O)Nc3ccc(CC)cc3)nc12`, the activity change, negative = inhibition in assay [1] is 1.43%; in assay [2] it was 3.63%; in assay [3], 6.4%; in assay [4], -2.71%; in assay [5], -1.24%.

On to `C[C@@]1(O)CCN(Cc2cnc(NCC(=O)O)nc2)C[C@@H]1O`, for which the activity change, negative = inhibition is -0.335% in assay [1]; -1.16% in assay [2]; 1.85% in assay [3]; -4.45% in assay [4]; 0.177% in assay [5].
